Results reported in publication PMC6131546, “Interaction of TBC1D9B with Mammalian ATG8 Homologues Regulates Autophagic Flux” (Scientific Reports, 2018).

Target: T1, recombinant GST-ATG8L (human, UniProt Q9H0R8)
T1 construct: human ATG8L (GABARAPL1), cloned into pGEX-6p; also called GST-fused ATG8L; GABARAPL1; source: E. coli BL21, purified (glutathione-sepharose)
Experiment: pull-down; GST fusion on glutathione-sepharose beads, incubated with recombinant FLAG-TBC1D9B or His-LC3B at 4 °C for 1 hour; 20 mM Tris pH 7.4, 0.1 mM EDTA, 100 mM NaCl; SDS-PAGE with Coomassie Brilliant Blue
Details: both partners purified

T1 sequence (Q9H0R8 whole entry, the tested form may be a part): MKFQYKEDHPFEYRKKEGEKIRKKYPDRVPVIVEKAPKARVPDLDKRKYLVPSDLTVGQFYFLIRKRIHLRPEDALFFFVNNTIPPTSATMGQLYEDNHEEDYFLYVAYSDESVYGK

B1: FLAG-TBC1D9Bα from a stable HEK293 cell line (natural protein)
chain: not shown
notes: human TBC1D9B, alpha splice form, in pcDNA3.1-FLAG; also called FLAG-tagged recombinant TBC1D9B; source: purified (anti-FLAG M2 beads, eluted with glycine HCl) for the pull-down; in lysate for the co-IP
binding result: binds
